According to PubChem BioAssay AID651820 (National Center for Advancing Translational Sciences (NCATS), 2012):
The whole screen tested about 340,000 compounds, of which about 12,000 (3.5%) were called active. The inconclusive results got no clear call from the source; some entries with a clear call stand among them for comparison. Calls follow the shape of the dose curve; as a rule, active = well fitted inhibition curve with a large enough effect; inconclusive = small, poorly fitted or top-dose-only effect, or another doubt; inactive = no such curve, though single readings can be large or run the other way. Potencies of inconclusive entries are left out as doubtful fits.
% is scaled to controls: 0 for no effect and ±100 for the full control effect; potency is read from the fitted curve at half-maximal effect; tags tell the direction and shape of the fitted curve.

Assay: qHTS Assay for Inhibitors of Hepatitis C Virus (HCV)
Conditions: Huh7.5.1 HCVcc-Cre (HCVcc is cell-culture hepatitis C virus) infection, luciferase reporter, 44 h; activity change, negative = inhibition: at 41.8 µM (top of the series) unless noted
Summary of the method: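 Antiviral activity was scored by luciferase reporter output from cells infected with HCVcc-Cre (~0.5 moi) in presence of compound, 44 h infection period, cells seeded 1,000/well 4 h prior.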
For `Cc1ccc(C(=O)NCCSC(C)(C)C)cc1`, the “activity change, negative = inhibition” value was inactive: 9.26%.
In the case of `OCCCn1c(C2CCCN2c2nc(-c3ccc(F)cc3)cs2)nc2cc(C(F)(F)F)ccc21` (stereo not given), the Potency is reported as inconclusive [inhibitor, partial curve].
For `Cc1cc(C)c(C)c(N=Nc2nc3ccccc3n2C)c1C`, the Potency was inconclusive [inhibitor, single point].
For `COc1ccc(N(CC(=O)Nc2ccc3c(c2)OCO3)S(=O)(=O)c2ccc(F)cc2)cc1`, the Potency was inconclusive [inhibitor, single point].
In the case of `Cc1cc(C)c(NC(=O)CN2C(=O)NC3(CCCCC3)C2=O)c(Cl)c1`, the “activity change, negative = inhibition” value is reported as inactive: 8.1%.
With `CCCc1[nH]n(-c2ccc([N+](=O)[O-])cc2)c(=O)c1C(C)=NCc1ccncc1` the Potency was inconclusive [inhibitor, partial curve].
For `O=C(Nc1ccccn1)c1ccc(-c2ccccc2)cc1`, the Potency was active: 10 µM.
In the case of `CCN(CC(O)CON=C1c2ccccc2-c2ccccc21)S(=O)(=O)c1ccc(C)cc1` (stereo not given), the Potency is reported as inconclusive [inhibitor, partial curve].
For `Cc1nc(N2CCOCC2)nc(N2CCCC2)c1[N+](=O)[O-]`, the Potency was inconclusive [inhibitor, single point].
For `CCCCn1c(NC(=O)c2ccccc2)nc2ccccc21`, the Potency was active: 12.6 µM.
With `O=C(Nc1ccc2c(c1)oc1ccccc12)c1ccc2c(c1)OCO2` the Potency was inconclusive [inhibitor, full curve, poor fit].
With `Cc1sc(NC(=O)c2ccc(Br)s2)c(C(N)=O)c1C` the Potency was active: 11.2 µM.
With `Cc1cccc(Cn2c(SCCN3CCOCC3)nc3c2c(=O)n(C)c(=O)n3C)c1` the Potency was inconclusive [inhibitor, single point].
For `COc1ccc(-c2oc(=O)c3cc(OC)c(OC)cc3c2C(F)(F)F)cc1`, the “activity change, negative = inhibition” value was inactive: 10.6%.
In the case of `CCCc1c(C(=O)N/N=C/c2cccc3ccccc23)nnn1-c1nonc1N`, the Potency is reported as inconclusive [inhibitor, partial curve].
With `O=C(N/N=C/c1c(Cl)[nH]c2ccccc12)c1sc2ccccc2c1Cl` the Potency was active: 10 µM.
With `COc1cc(OC)cc(C(=O)NNC(=S)Nc2ccc(S(N)(=O)=O)cc2)c1` the “activity change, negative = inhibition” value was inactive: -9.12%.
For `Cc1cccn2c(=O)c3cc(C(=O)NCCN4CCOCC4)c(=N)n(CCc4ccccc4)c3nc12`, the Potency was inconclusive [inhibitor, partial curve].
For `O=c1c2[nH]c3ccccc3c2ncn1C1CCCCC1`, the Potency was inconclusive [inhibitor, single point].
For `O=S(=O)(c1ccccc1)c1cnn(-c2ccccc2)c1-c1ccc(F)cc1`, the Potency was inconclusive [inhibitor, single point].
In the case of `Cc1ccc(S(=O)(=O)N2CCN(C(=O)c3ccc(N4CCC(C)CC4)c([N+](=O)[O-])c3)CC2)cc1`, the Potency is reported as inconclusive [inhibitor, single point].
In the case of `CCN(CC)CCNC(=O)c1ccc(NC(=O)c2cn(-c3ccc(F)cc3)nc2-c2cccc(OC)c2)cc1`, the Potency is reported as inconclusive [inhibitor, single point].
In the case of `Cc1cccc(N(C)S(=O)(=O)c2c(C)noc2C)c1`, the “activity change, negative = inhibition” value is reported as inactive: 8.18%.
For `CC(=O)Nc1ccc(NC(=O)CCCc2c[nH]c3ccccc23)cc1`, the Potency was inconclusive [inhibitor, single point].
With `COc1ccc(CNCCc2ccc(Cl)cc2)c(OC)c1OC` the Potency was inconclusive [inhibitor, single point].
For `O=C(NNc1ccccc1Cl)C(O)(c1cccc(C(F)(F)F)c1)c1cccc(C(F)(F)F)c1`, the Potency was inconclusive [inhibitor, single point].
For `Cc1ccc(O)c(C(=O)/C=C/c2ccc3c(c2)OCCCO3)c1`, the Potency was inconclusive [inhibitor, full curve, poor fit].
With `COCCCNC(=O)c1sc2ncn(CC(=O)Nc3ccc(C)c(Cl)c3)c(=O)c2c1C` the Potency was inconclusive [inhibitor, single point].
With `COc1ccc(C(=O)c2c(-c3ccc(OC)cc3)oc3ccccc23)cc1` the “activity change, negative = inhibition” value was inactive: -56%.
In the case of `Cc1cc(C)c(C(=O)COC(=O)CCn2c(C)csc2=O)cc1C`, the Potency is reported as inconclusive [inhibitor, single point].
With `CC1CCN(S(=O)(=O)c2ccc(C(=O)Nc3nnc(-c4ccco4)o3)cc2)CC1` the Potency was inconclusive [inhibitor, single point].
For `CC(C)(C)c1ccc(C(=O)CCCSC2=C(C#N)C(c3ccco3)C3=C(CCCC3=O)N2)cc1` (stereo not given), the Potency was active: 6.31 µM.
In the case of `CNCc1c(OCc2ccccc2)ccc2ccccc12`, the Potency is reported as inconclusive [inhibitor, single point].
With `Cc1cc(N)n(Cc2ccc(Cl)cc2)n1` the “activity change, negative = inhibition” value was inactive: 4.05%.
With `CCOc1ccc(C(O)Cc2nc3ccccc3n2C)cc1` (stereo not given) the “activity change, negative = inhibition” value was inactive: 11.1%.
With `O=c1c(-c2ccccc2)c(-c2ccccc2)oc2cc(O)cc(O)c12` the Potency was inconclusive [inhibitor, partial curve].
With `Oc1ccc(N=Nc2nccs2)c(O)c1` the Potency was inconclusive [inhibitor, single point].
With `CCc1ccc(Nc2nnc(SCc3cc(=O)n4ccsc4n3)s2)cc1` the Potency was inconclusive [inhibitor, single point].
In the case of `Cc1ccnc(NC(=O)c2ccccc2NC(=O)C(C)(C)C)c1`, the Potency is reported as inconclusive [inhibitor, partial curve].
With `O=C1c2ccccc2C(=O)N1CCCCc1cn(C[C@H]2CC[C@H](Cn3cc(CCCCN4C(=O)c5ccccc5C4=O)nn3)O2)nn1` the Potency was inconclusive [inhibitor, partial curve].
With `O=C(COC(=O)c1ccc2[nH]c3c(c2c1)CCCC3)Nc1ccc(Cl)cc1Cl` the Potency was inconclusive [inhibitor, single point].
With `COC(=O)CSc1nc(-c2ccccc2)c2c(c1C#N)CCCC2` the Potency was inconclusive [inhibitor, single point].
With `Cc1ccc2nc(/C=C/c3cccc(F)c3)ccc2c1` the Potency was inconclusive [inhibitor, single point].
For `CCOC(=O)c1cnc2ccc(C(=O)OC)cc2c1NCCN1CCOCC1`, the “activity change, negative = inhibition” value was inactive: -20.7%.
For `CCN(CC)C(=S)Nc1cc(C(=O)OC)ccc1C(=O)OC`, the “activity change, negative = inhibition” value was inactive: -4.46%.
In the case of `CN(C)CC[C@@H](c1ccc(Cl)cc1)c1ccccn1`, the Potency is reported as inconclusive [inhibitor, full curve, poor fit].
With `CCCN(CC(=O)Nc1ccccc1OC)C(=O)CSC(=S)N1CCCC1` the Potency was inconclusive [inhibitor, single point].
In the case of `COCCCn1c(=O)c2sccc2n2c(CCCC(=O)NCc3cccc(OC)c3)nnc12`, the “activity change, negative = inhibition” value is reported as inactive: 9.11%.
With `CC1CCN(C(=O)CSc2nc3[nH]ncc3c(=O)[nH]2)CC1` the “activity change, negative = inhibition” value was inactive: 1.79%.
With `COc1ccc(N2CCN(Cc3nc4ccccc4[nH]3)CC2)cc1` the “activity change, negative = inhibition” value was inactive: 15.9%.
For `COc1cccc(-c2c(C#N)c(N)nc3c2c(C)nn3-c2ccccc2)c1O`, the Potency was inconclusive [inhibitor, single point].
With `COc1ccc(CC(=O)Nc2cccc(SC)c2)cc1` the “activity change, negative = inhibition” value was inactive: 15.1%.
With `O=C(NC1CN2CCC1CC2)c1ccc(-c2ccc([N+](=O)[O-])cc2)o1` (stereo not given) the Potency was inconclusive [inhibitor, single point].
For `COc1ccc(C)cc1NC(=O)CN1CCN(S(=O)(=O)c2ccc3ccccc3c2)CC1`, the Potency was inconclusive [inhibitor, single point].
With `COc1cc(CNn2c(C)n[nH]c2=S)cc(Br)c1OCC(=O)NC(C)(C)C` the “activity change, negative = inhibition” value was inactive: -9.34%.
In the case of `COCCn1c(=S)[nH]c2sc3c(c2c1=O)CCC(C)C3` (stereo not given), the “activity change, negative = inhibition” value is reported as inactive: -2.57%.
With `COC(=O)C1=C(c2cccc(OCc3ccccc3)c2)C[C@@H]2CC[C@H]1N2C(=O)NCCOc1ccccc1Cl` the Potency was inconclusive [inhibitor, single point].
For `COc1ccccc1C1C2=C(CCCC2=O)N(CC(=O)O)C2=C1C(=O)CCC2`, the “activity change, negative = inhibition” value was inactive: 5.68%.
With `CC1c2cc3c(cc2CCN1CC(=O)Nc1ccc(S(=O)(=O)N2CCCC2)cc1)OCCCO3` (stereo not given) the Potency was inconclusive [inhibitor, partial curve].
For `Cc1ccc(C)c(NC(=S)NNC(=O)c2csc3c2CCCC3)c1`, the Potency was inconclusive [inhibitor, single point].
In the case of `Cc1ccc2nc3c(cc(C(=O)NCC4CCCO4)c(=N)n3C3CCCC3)c(=O)n2c1` (stereo not given), the Potency is reported as inconclusive [inhibitor, partial curve, poor fit].
In the case of `O=C(COc1ccc(S(=O)(=O)N2CCCC2)cc1Cl)NCc1ccc2c(c1)OCO2`, the Potency is reported as inconclusive [inhibitor, partial curve].
For `Cc1ccc(C2=NNC(C(O)C(O)C(O)C(C)O)S2)cc1` (stereo not given), the “activity change, negative = inhibition” value was inactive: 7.47%.
In the case of `O=C(CN1CCC(NC(=O)c2ccco2)CC1)Nc1ccccc1C(F)(F)F`, the Potency is reported as inconclusive [inhibitor, single point].
With `COc1cc(N=Nc2c(O)c3ccccc3[nH]c2=O)c(OC)cc1N=Nc1ccccc1` the “activity change, negative = inhibition” value was inactive: -7.2%.
With `O=C(NC1CC1)C1CCN(S(=O)(=O)c2ccc(Cl)c([N+](=O)[O-])c2)CC1` the Potency was active: 12.6 µM.
With `CC1(C)CC(NC(=O)COc2ccc3c4c(c(=O)oc3c2)CCCC4)CC(C)(C)N1` the Potency was inconclusive [inhibitor, partial curve].
With `CC1CCc2c(nc3ncnn3c2NCCc2ccccc2F)C1` (stereo not given) the Potency was inconclusive [inhibitor, partial curve].
For `O=C(O)c1cccc(Cn2c(Cl)c(/C=N/NC(=O)c3ccco3)sc2=O)c1`, the “activity change, negative = inhibition” value was inactive: 30.7%.
For `CN1CCN(CCC(=O)N2c3ccccc3Sc3ccc(C(F)(F)F)cc32)CC1`, the Potency was active: 5.62 µM.
